# Data: the supplement of paper PMC8007513
# Counter-ions that a name gives are not always drawn. ± gives the standard error. About 130 (10%) of roughly 1,300 compounds showed an effect of 50% or more. Only a part is listed here, and it is no random draw.
# System: Trichoderma virens ATCC 9645
# Test: growth yield (OD600) with compound + IPBC relative to untreated control; higher = less growth inhibition
# Details: compound concentration: 100 uM, IPBC concentration: 200 ng/ml
# Outline: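 Trichoderma virens ATCC 9645 spores from 7-day potato dextrose agar plates were suspended in potato dextrose broth at 15,000 spores ml^−1. Aliquots of 100 μl with library compounds at 100 μM final, with or without a co-applied biocide at 200 ng ml^−1, were grown in 96-well plates at 30 °C. OD600 was read at 40 h and 72 h on a BioTek EL800. Growth is expressed relative to the control without either agent, as means of duplicate screens.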
compound,measurement,setting,value
CCCN(CCC)C(=O)C(CCC(=O)O)NC(=O)c1ccccc1 (stereo not given) [Proglumide] + CCCCNC(=O)OCC#CI [3-iodo-2-propynyl butylcarbamate (IPBC)],growth yield,40 h,93.6 ± 5.9%
same,growth yield,72 h,99.4 ± 3.8%
COc1cc(OC)c(C(=O)CCCN2CCCC2)c(OC)c1 [Buflomedil hydrochloride] + CCCCNC(=O)OCC#CI [3-iodo-2-propynyl butylcarbamate (IPBC)],growth yield,40 h,82.6 ± 2.9%
same,growth yield,72 h,88.4 ± 1.8%
N#CC(c1ccc(Cl)cc1)c1c(Cl)cc(-n2ncc(=O)[nH]c2=O)cc1Cl (stereo not given) [Diclazuril] + CCCCNC(=O)OCC#CI [3-iodo-2-propynyl butylcarbamate (IPBC)],growth yield,40 h,61%
same,growth yield,72 h,93.8 ± 12%
CO[C@H]1C[C@H](O[C@H]2[C@H](C)[C@@H](O[C@@H]3O[C@H](C)C[C@H](N(C)C)[C@H]3OC(C)=O)[C@@H](C)C[C@@]3(CO3)C(=O)[C@H](C)[C@@H](OC(C)=O)[C@@H](C)[C@@H](C)OC(=O)[C@@H]2C)O[C@@H](C)[C@@H]1OC(C)=O [Troleandomycin] + CCCCNC(=O)OCC#CI [3-iodo-2-propynyl butylcarbamate (IPBC)],growth yield,40 h,89.59 ± 0.32%
same,growth yield,72 h,92.29 ± 0.84%
Cc1cc(C(=O)NNCc2ccccc2)no1 [Isocarboxazid] + CCCCNC(=O)OCC#CI [3-iodo-2-propynyl butylcarbamate (IPBC)],growth yield,40 h,102 ± 6.2%
same,growth yield,72 h,99.3 ± 3.2%
C=CCC1(CC(C)C)C(=O)NC(=O)NC1=O [Butalbital] + CCCCNC(=O)OCC#CI [3-iodo-2-propynyl butylcarbamate (IPBC)],growth yield,40 h,85.6 ± 1.4%
same,growth yield,72 h,93.2 ± 0.94%
O=C(CCCN1CCC(n2c(=O)[nH]c3ccccc32)CC1)c1ccc(F)cc1 [Benperidol] + CCCCNC(=O)OCC#CI [3-iodo-2-propynyl butylcarbamate (IPBC)],growth yield,40 h,97.8 ± 13%
same,growth yield,72 h,101 ± 8.9%
CC(C)(Oc1ccc(Cl)cc1)C(=O)O [Clofibric acid] + CCCCNC(=O)OCC#CI [3-iodo-2-propynyl butylcarbamate (IPBC)],growth yield,40 h,102 ± 3.6%
same,growth yield,72 h,101.1 ± 0.42%
Cc1cc(=O)n(-c2ccccc2)n1C [Antipyrine] + CCCCNC(=O)OCC#CI [3-iodo-2-propynyl butylcarbamate (IPBC)],growth yield,40 h,84.3 ± 4.6%
same,growth yield,72 h,87.2 ± 4.5%
Clc1ccc(COC(Cn2ccnc2)c2ccc(Cl)cc2Cl)c(Cl)c1 (stereo not given) [Miconazole] + CCCCNC(=O)OCC#CI [3-iodo-2-propynyl butylcarbamate (IPBC)],growth yield,40 h,2.8591 ± 3.6e-15%
same,growth yield,72 h,2.41 ± 0.1%
NC12CC3CC(CC(C3)C1)C2 [Adamantamine fumarate] + CCCCNC(=O)OCC#CI [3-iodo-2-propynyl butylcarbamate (IPBC)],growth yield,40 h,95.3 ± 11%
same,growth yield,72 h,97.2 ± 7.5%
CC1CCc2c(N3CCC(O)CC3)c(F)cc3c(=O)c(C(=O)O)cn1c23 (stereo not given) [Nadifloxacin] + CCCCNC(=O)OCC#CI [3-iodo-2-propynyl butylcarbamate (IPBC)],growth yield,40 h,105 ± 7.6%
same,growth yield,72 h,99.1 ± 6.8%
C[C@@H]1NC(=O)NC1=O [Methylhydantoin-5-(L)] + CCCCNC(=O)OCC#CI [3-iodo-2-propynyl butylcarbamate (IPBC)],growth yield,40 h,96.6 ± 12%
same,growth yield,72 h,96.8 ± 6.4%
CN1CCN(C2=Nc3cc(Cl)ccc3Nc3ccccc32)CC1 [Clozapine] + CCCCNC(=O)OCC#CI [3-iodo-2-propynyl butylcarbamate (IPBC)],growth yield,40 h,65.6 ± 2.7%
same,growth yield,72 h,93.8 ± 2.7%
COc1ccc(OC)c(C(O)C(C)N)c1 (stereo not given) [Methoxamine hydrochloride] + CCCCNC(=O)OCC#CI [3-iodo-2-propynyl butylcarbamate (IPBC)],growth yield,40 h,87.4 ± 7.3%
same,growth yield,72 h,92.4 ± 5.3%
CCC(NC(C)C)C(O)c1ccc(O)c(O)c1 (stereo not given) [Isoetharine mesylate salt] + CCCCNC(=O)OCC#CI [3-iodo-2-propynyl butylcarbamate (IPBC)],growth yield,40 h,114 ± 4.8%
same,growth yield,72 h,108.4 ± 0.42%
CN1CCc2cccc3c2[C@H]1Cc1ccc(O)c(O)c1-3 [R(-) Apomorphine hydrochloride hemihydrate] + CCCCNC(=O)OCC#CI [3-iodo-2-propynyl butylcarbamate (IPBC)],growth yield,40 h,108%
same,growth yield,72 h,100.9 ± 0.42%
CO[C@@]1(NC(=O)CSCC#N)C(=O)N2C(C(=O)O)=C(CSc3nnnn3C)CS[C@@H]21 [Cefmetazole sodium salt] + CCCCNC(=O)OCC#CI [3-iodo-2-propynyl butylcarbamate (IPBC)],growth yield,40 h,87.2 ± 4.9%
same,growth yield,72 h,86.3 ± 3.9%
C[C@@H]1[C@H](O)[C@@H](C)/C=C/C=C/C=C/C=C/C=C/C=C/C=C/[C@H](O[C@@H]2O[C@H](C)[C@@H](O)[C@H](N)[C@@H]2O)C[C@@H]2O[C@](O)(C[C@@H](O)C[C@@H](O)[C@H](O)CC[C@@H](O)C[C@@H](O)CC(=O)O[C@H]1C)C[C@H](O)[C@H]2C(=O)O [Amphotericin B] + CCCCNC(=O)OCC#CI [3-iodo-2-propynyl butylcarbamate (IPBC)],growth yield,40 h,37.3 ± 4.6%
same,growth yield,72 h,92.61 ± 0.73%
CCOC(=O)C(C)(C)Oc1ccc(Cl)cc1 [Clofibrate] + CCCCNC(=O)OCC#CI [3-iodo-2-propynyl butylcarbamate (IPBC)],growth yield,40 h,88.5 ± 4.6%
same,growth yield,72 h,91 ± 1.1%
CC(=O)N(O)CCCCCNC(=O)CCC(=O)N(O)CCCCCNC(=O)CCC(=O)N(O)CCCCCN [Deferoxamine mesylate] + CCCCNC(=O)OCC#CI [3-iodo-2-propynyl butylcarbamate (IPBC)],growth yield,40 h,98.16 ± 0.32%
same,growth yield,72 h,105 ± 2.1%
CC(C)/N=c1\cc2n(-c3ccc(Cl)cc3)c3ccccc3nc-2cc1Nc1ccc(Cl)cc1 [Clofazimine] + CCCCNC(=O)OCC#CI [3-iodo-2-propynyl butylcarbamate (IPBC)],growth yield,40 h,83.4 ± 19%
same,growth yield,72 h,117 ± 11%
O=C1Cc2cc(CCN3CCN(c4nsc5ccccc45)CC3)c(Cl)cc2N1 [Ziprasidone  Hydrochloride] + CCCCNC(=O)OCC#CI [3-iodo-2-propynyl butylcarbamate (IPBC)],growth yield,40 h,106.3 ± 0.48%
same,growth yield,72 h,108 ± 1.9%
CCN[C@H]1C[C@H](C)S(=O)(=O)c2sc(S(N)(=O)=O)cc21 [Dorzolamide hydrochloride] + CCCCNC(=O)OCC#CI [3-iodo-2-propynyl butylcarbamate (IPBC)],growth yield,40 h,100 ± 4.5%
same,growth yield,72 h,94.6 ± 0.63%
O=c1cc(-c2ccc(O)c(O)c2)oc2cc(O)cc(O)c12 [Luteolin] + CCCCNC(=O)OCC#CI [3-iodo-2-propynyl butylcarbamate (IPBC)],growth yield,40 h,80.7%
same,growth yield,72 h,103 ± 17%
CCC(=O)O[C@H]1CC[C@H]2[C@@H]3CCC4=CC(=O)CC[C@]4(C)[C@H]3CC[C@]12C [Testosterone propionate] + CCCCNC(=O)OCC#CI [3-iodo-2-propynyl butylcarbamate (IPBC)],growth yield,40 h,90.06 ± 0.16%
same,growth yield,72 h,99.6%
CC(C)(C(=O)c1cccnc1)c1cccnc1 [Metyrapone] + CCCCNC(=O)OCC#CI [3-iodo-2-propynyl butylcarbamate (IPBC)],growth yield,40 h,87.5 ± 1.4%
same,growth yield,72 h,87.68 ± 0.84%
Nc1cc(-c2ccncc2)c[nH]c1=O [Amrinone] + CCCCNC(=O)OCC#CI [3-iodo-2-propynyl butylcarbamate (IPBC)],growth yield,72 h,41.3%
CC(N)C12CC3CC(CC(C3)C1)C2 (stereo not given) [Rimantadine Hydrochloride] + CCCCNC(=O)OCC#CI [3-iodo-2-propynyl butylcarbamate (IPBC)],growth yield,40 h,82.76 ± 0.16%
same,growth yield,72 h,89.04 ± 0.1%
CCC(=O)OCC(=O)[C@@]1(OC(=O)CC)[C@H](C)C[C@H]2[C@H]3[C@H]([C@@H](O)C[C@@]21C)[C@@]1(C)C=CC(=O)C=C1C[C@H]3Cl [Alclometasone dipropionate] + CCCCNC(=O)OCC#CI [3-iodo-2-propynyl butylcarbamate (IPBC)],growth yield,40 h,100 ± 8.9%
same,growth yield,72 h,100 ± 8.6%
CCCc1nc(C(C)(C)O)c(C(=O)O)n1Cc1ccc(-c2ccccc2-c2nnn[nH]2)cc1 [Olmesartan] + CCCCNC(=O)OCC#CI [3-iodo-2-propynyl butylcarbamate (IPBC)],growth yield,40 h,107 ± 1.3%
same,growth yield,72 h,104 ± 1.4%
N=C(N)N/N=C/c1c(Cl)cccc1Cl [Guanabenz acetate] + CCCCNC(=O)OCC#CI [3-iodo-2-propynyl butylcarbamate (IPBC)],growth yield,40 h,81.5 ± 6.5%
same,growth yield,72 h,90.2 ± 5.5%
"OC(CCN1CCCCC1)(c1ccccc1)C1CCCCC1 (stereo not given) [Trihexyphenidyl-D,L Hydrochloride] + CCCCNC(=O)OCC#CI [3-iodo-2-propynyl butylcarbamate (IPBC)]",growth yield,40 h,101 ± 16%
same,growth yield,72 h,102 ± 8.6%
Brc1c(NC2=NCCN2)ccc2nccnc12 [Brimonidine L-Tartrate] + CCCCNC(=O)OCC#CI [3-iodo-2-propynyl butylcarbamate (IPBC)],growth yield,40 h,98 ± 4.3%
same,growth yield,72 h,94.4 ± 1.1%
CN(C)CCOC(=O)COc1ccc(Cl)cc1 [Meclofenoxate hydrochloride] + CCCCNC(=O)OCC#CI [3-iodo-2-propynyl butylcarbamate (IPBC)],growth yield,40 h,93.2 ± 3.3%
same,growth yield,72 h,96.7 ± 2.1%
CC(Oc1ccccc1)C(=O)N[C@@H]1C(=O)N2[C@@H]1SC(C)(C)[C@@H]2C(=O)O (stereo not given in full) [Phenethicillin potassium salt] + CCCCNC(=O)OCC#CI [3-iodo-2-propynyl butylcarbamate (IPBC)],growth yield,40 h,105 ± 11%
same,growth yield,72 h,105 ± 6.3%
COc1ccc(C(=O)NCc2ccc(OCCN(C)C)cc2)cc1OC [Itopride] + CCCCNC(=O)OCC#CI [3-iodo-2-propynyl butylcarbamate (IPBC)],growth yield,40 h,107 ± 1.1%
same,growth yield,72 h,102%
Cn1c([N+](=O)[O-])cnc1COC(N)=O [Ronidazole] + CCCCNC(=O)OCC#CI [3-iodo-2-propynyl butylcarbamate (IPBC)],growth yield,40 h,99 ± 6.2%
same,growth yield,72 h,95.5 ± 5.3%
